# Results as given in patent US20010004460A1, “PROCESS FOR THE PREPARATION OF RICE SEED FOR SOWING” (priority 1995, published 2001).
# System: rice seeds
# Experiment: Seedling growth of pregerminated rice seed coated with gibberellic acid, sown by plane in flooded field
# Details: 3 to 10 days after sowing; compared with classical treatment of rice seed with gibberellic acid
compound,measurement,value
C=C1C[C@]23C[C@@]1(O)CC[C@H]2[C@@]12C=C[C@H](O)[C@@](C)(C(=O)O1)[C@H]2[C@@H]3C(=O)O [gibberellic acid],shoot size,about the same size as the shoots obtained with classical treatment
